Test results from the supplement of paper PMC3334620.
In all, about 33,000 sequences were measured (“E-score (-0.5 to 0.5)”: median about -0.04, highest 2% from about 0.36 on). The list shows a part of the results.

biological target: T1, Hmlalpha2 (UniProt P0CY09); test: PBM E-score (8-mer binding enrichment) (E-score (-0.5 to 0.5)); higher = stronger / more preferred TF binding; most listed sequences are background and not binding sites; settings: protein concentration: 200 nM; construct: GST-full length
T1 sequence: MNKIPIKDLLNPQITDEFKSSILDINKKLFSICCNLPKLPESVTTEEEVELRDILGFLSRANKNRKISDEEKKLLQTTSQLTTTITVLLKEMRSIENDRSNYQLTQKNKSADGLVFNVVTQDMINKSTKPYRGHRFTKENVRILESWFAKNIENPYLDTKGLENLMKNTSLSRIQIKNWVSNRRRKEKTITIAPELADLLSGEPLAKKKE
In short: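 For each ungapped eight-base word taken together with its reverse complement, the Universal PBM Analysis Suite assigned an E-score. Binding data came from GST-tagged yeast transcription factors, applied at about 100-200 nM, on universal all-10-mer Agilent arrays made double-stranded by primer extension. Fluorescent anti-GST marked bound protein, and scans were normalised with masliner.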

| Sequence | PBM E-score |
| --- | --- |
| AGCGTTGA | 0.00374 |
| GTGGCCAC | -0.093 |
| ACTCGCGG | -0.0858 |
| AGGGAGGC | -0.339 |
| ATGTCACG | 0.172 |
| CGATGATC | -0.0714 |
| AAGACGAG | -0.11 |
| GAGGCAAA | -0.218 |
| ACTGGAAC | -0.106 |
| TTTATAAA | 0.231 |
| ATCGCTCG | -0.128 |
| ACGATAAC | 0.144 |
| ACTACACT | 0.253 |
| AGTCGATG | -0.0586 |
| AAGCCAGT | -0.183 |
| ATGAGGTG | -0.035 |
| GCAGGGTA | -0.17 |
| TGGACACA | 0.144 |
| AATCCCTG | -0.11 |
| CCCGTCCC | -0.318 |
| CAAGGCTC | -0.136 |
| GTAACTGA | 0.111 |

| Sequence | PBM E-score |
| --- | --- |
| CGAGCATA | -0.325 |
| AAGTGCCA | 0.0324 |
| GTTGTGGA | 0.0527 |
| GGATGCAA | -0.0214 |
| CGAAAAAC | 0.0238 |
| CATTACAA | 0.411 |
| AAACTGGA | -0.0493 |
| CAGTATGG | -0.16 |
| TCAACCGA | 0.0455 |
| CAGCGTAA | 0.173 |
| CCACAGTC | -0.295 |
| CGATCGTC | -0.122 |
| AAACATAT | 0.311 |
| ATAGGGGC | -0.215 |
| ACCGTTCC | -0.0822 |
| CCGTGAGC | -0.159 |
| AGAGACGA | -0.124 |
| GCAGTGGC | -0.231 |
| CACCAGTA | -0.0753 |
| AAACGTCG | -0.0779 |
| AATTATGT | 0.333 |
| GAACTGGC | -0.269 |

| Sequence | PBM E-score |
| --- | --- |
| AGAAGAGC | -0.256 |
| AGACCACA | -0.122 |
| CCGAATCG | -0.113 |
| ACTACGCG | 0.337 |
| GAGAGCTC | -0.3 |
| ATCAGTTC | -0.103 |
| AGATCCAG | -0.0629 |
| CTCCACTA | -0.0436 |
| AATCGCGT | 0.217 |
| AATCGGTA | 0.0938 |
| AGTTGGAA | -0.0867 |
| TCACCTAA | 0.0634 |
| GAATGTGA | -0.0574 |
| CATTCGCA | -0.044 |
| CCCACCAA | -0.14 |
| AAGGCCCT | -0.0884 |
| CTCAAAGC | -0.0843 |
| AGTCGCAA | 0.049 |
| ATTAATAG | 0.144 |
| AGCGTACG | -0.0994 |
| AGGGTCAT | -0.146 |
| AACGTCGT | 0.0626 |

| Sequence | PBM E-score |
| --- | --- |
| CTGGCTGA | -0.348 |
| GTGTAGTA | 0.323 |
| ACCTTAGC | -0.0149 |
| CTAGAACA | 0.0794 |
| CCGTAAGA | -0.133 |
| TGAGCGAA | -0.0285 |
| AACCCCGA | -0.0634 |
| GGGCCCCC | -0.379 |
| TGGTCCAA | -0.192 |
| CTAGGGAG | -0.263 |
| GACCTAAA | -0.0367 |
| AGGTAGGA | -0.161 |
| ACACGATA | 0.433 |
| GAAAGCAA | 0.0633 |
| ATAGTTAC | 0.245 |
| AACCAACC | -0.0848 |
| ACAGGTCG | -0.12 |
| AATTGTGG | 0.0656 |
| GTGGGGCA | -0.417 |
| ATCACTTA | 0.18 |
| GGCTCTGA | -0.0387 |
| ATTAATCG | 0.102 |

| Sequence | PBM E-score |
| --- | --- |
| TCTCATCA | -0.0405 |
| CTGTAGGC | -0.0516 |
| CTTACTTA | 0.0692 |
| CACGTTAC | 0.231 |
| GGTGTAAA | 0.351 |
| CTACACTA | 0.208 |
| GGTTTCTA | 0.0585 |
| CTGTGTTA | 0.398 |
| ATTATCCA | 0.0364 |
| CTACGGCA | -0.12 |
| GATTTAAC | 0.231 |
| GTCGTTCA | -0.0406 |
| CCGGCCAA | -0.32 |
| CCTGCATC | -0.226 |
| AATGCCAG | -0.208 |
| ATGCGTAG | 0.214 |
| ACGATACT | -0.0134 |
| CTACATAC | 0.327 |
| ATGCCACC | -0.264 |
| CGGCGAGA | -0.174 |
| ATTATAGC | -0.184 |
